According to PubChem BioAssay AID1461 (National Center for Advancing Translational Sciences (NCATS), 2008):
Screen size: about 220,000 compounds; about 2,300 (1%) were called active. This list was built around the results that the source calls inconclusive (neither active nor inactive); the mix of calls is not that of the screen. Calls follow the shape of the dose curve; as a rule, active = well fitted inhibition curve with a large enough effect; inconclusive = small, poorly fitted or top-dose-only effect, or effect the other way; inactive = no such curve, though single readings can be large or run the other way. Potencies of inconclusive entries are left out as doubtful fits.

target: Neuropeptide S receptor (Homo sapiens) (UniProt Q6W5P4); experiment: qHTS Assay for Antagonists of the Neuropeptide S Receptor: cAMP Signal Transduction; settings: CHO-NPSR cells, cAMP TR-FRET, antagonist mode; series mostly up to 38.3 µM; also: nearly all actives have a fitted effect of over 50% in size
Potency is read from the fitted curve at half-maximal effect; tags tell the direction and shape of the fitted curve.

UniProt Q6W5P4, sequence (Q6W5P4 whole entry, looked up): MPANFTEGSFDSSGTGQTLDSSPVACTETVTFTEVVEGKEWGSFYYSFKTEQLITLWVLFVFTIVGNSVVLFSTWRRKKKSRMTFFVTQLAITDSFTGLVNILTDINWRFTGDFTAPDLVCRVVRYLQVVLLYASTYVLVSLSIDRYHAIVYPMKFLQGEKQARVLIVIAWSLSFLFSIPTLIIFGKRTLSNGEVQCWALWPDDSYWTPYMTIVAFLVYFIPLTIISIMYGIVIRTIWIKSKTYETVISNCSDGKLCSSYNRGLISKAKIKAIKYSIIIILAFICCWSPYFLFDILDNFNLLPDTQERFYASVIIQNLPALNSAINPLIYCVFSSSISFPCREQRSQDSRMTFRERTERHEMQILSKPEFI

| Structure (SMILES) | Potency |
| --- | --- |
| Cc1ccc(Cn2cc(SCC(=O)Nc3nccs3)c3ccccc32)cc1 | active: 10 µM |
| CC(=O)c1c(C)[nH]c(C(=O)COc2cc(C)cc(C)c2)c1C | inactive |
| COc1ccc(S(=O)(=O)N2CCN(Cc3ccc4c(c3)OCO4)CC2)c2ccccc12 | inactive |
| CCNc1nc(CSc2ccccc2)nc2sc(C)c(C)c12 | inconclusive [inhibitor, single point] |
| Cc1ccc(C(=O)N2CCN(c3ccc([N+](=O)[O-])c(NCc4ccco4)c3)CC2)cc1 | inconclusive [inhibitor, partial curve, poor fit] |
| CC(=O)C1=C(O)C(=O)N(CC(=O)O)C1c1ccccc1Cl (stereo not drawn) | inconclusive [inhibitor, single point] |
| CC(=O)Nc1sc2c(c1C(c1cccc(Cl)c1)N1CCN(CCO)CC1)CCCC2 (stereo not drawn) | inconclusive [inhibitor, single point] |
| Cc1cccc(Oc2sc(C(=O)c3ccccc3)c(N)c2C#N)c1 | inconclusive [inhibitor, partial curve] |
| S=C(Nc1ccccn1)Nc1ccccc1Cl | inconclusive [activator, single point] |
| Cc1cc(C)nc(Sc2ccc(C=O)cc2[N+](=O)[O-])n1 | inactive |
| c1ccc(Cc2nn3c(Cn4nnc5ccccc54)nnc3s2)cc1 | inactive |
| CCCCN(C)C(=O)c1oc2ccc(S(=O)(=O)N3CCCCCC3)cc2c1C | inconclusive [inhibitor, partial curve] |
| Cc1ccc(C(=O)N/C(=C/c2cn(-c3ccccc3)nc2-c2ccccc2)C(=O)O)cc1 | inactive |
| Cc1cc(NC(=O)CSc2ccc(-c3nc4cc(C)c(C)cc4[nH]3)cn2)no1 | inconclusive [activator, single point] |
| Cc1nn(Cc2ccc(C(=O)Nc3ccccc3C(F)(F)F)o2)c(C)c1Br | inconclusive [inhibitor, single point] |
| COc1ccc(CN2CCC(N(CCc3ccccc3)Cc3ccccc3)CC2)c(OC)c1 | active: 7.94 µM |
| CC(=O)Nc1cccc(-c2nnc3c4ccccc4c(C)nn23)c1 | inconclusive [inhibitor, single point] |
| CC1=CC(=O)C(C(C)C)=C/C1=N/OC(=O)c1cccc([N+](=O)[O-])c1 | inconclusive [inhibitor, single point] |
| O=C(NC(=S)Nc1ccc(N2CCCCC2)c(Cl)c1)c1ccc2c(c1)OCCO2 | inconclusive [inhibitor, single point] |
| Fc1ccc(/C=N/NC(=S)Nc2ccc(Cl)cc2Cl)cc1 | inactive |
| CCNc1ccc(Br)cc(C(=O)/C=C/c2c(Cl)cccc2Cl)c1=O | inconclusive [inhibitor, single point] |
| CN1CCN(c2ccccc2NC(=O)c2ccc(-c3ccc(Cl)cc3Cl)o2)CC1 | inconclusive [inhibitor, partial curve] |
| COc1ccc(NC(=O)CC(C)(C)C)c([N+](=O)[O-])c1 | inactive |
| O=C(CN(Cc1ccc2c(c1)OCO2)C(=O)CNS(=O)(=O)c1ccccc1)NCc1ccco1 | inactive |
| Cc1cccc(Nc2nc(-c3c(C)nc4ccccn34)cs2)c1 | inconclusive [inhibitor, single point] |

| Structure (SMILES) | Potency |
| --- | --- |
| c1csc(-c2nnsc2-c2nc3ccccc3[nH]2)c1 | inconclusive [inhibitor, partial curve] |
| Cc1ccc2c(c1)N(C(=O)c1ccco1)C(C)(C)c1ssc(=S)c1-2 | inconclusive [inhibitor, partial curve, poor fit] |
| Cc1ccc(C(=O)NC(=S)Nc2ccccc2C(F)(F)F)cc1C | inconclusive [inhibitor, single point] |
| CCOC(=O)c1[nH]c(C)c(C(=O)N2CCc3ccccc32)c1C | inconclusive [activator, partial curve] |
| O=S(=O)(Nc1cccc(CCc2ccccn2)c1)c1ccc2ccccc2c1 | inconclusive [inhibitor, single point] |
| O=S(=O)(CC(CN1CCCC1)N1CCCC1)c1ccc2ccccc2c1 (stereo not drawn) | inactive |
| O=C(O)c1ccc(N/N=C/C2=C(N3CCOCC3)C(=C\c3ccccc3)/CC2)cc1 | inconclusive [activator, partial curve] |
| Cc1ccccc1CS(=O)(=O)c1nnc([C@H](Cc2ccccc2)NC(=O)OC(C)(C)C)o1 | active: 10 µM |
| N#CCc1nn2c3c(cnc2c1C#N)C(=O)CCC3 | inactive |
| Cc1ccnc2ccc(-c3nc4ccccc4o3)cc12 | inconclusive [inhibitor, single point] |
| Cc1ccc(C2C(/C=C3/SC(=S)NC3=O)=C(c3cccs3)Oc3ccccc32)cc1 (stereo not drawn) | inconclusive [inhibitor, single point] |
| COc1ccc(C[C@H]2CN3C(=NC[C@H]3Cc3ccccc3)N2CCNC(=O)c2ccc(C)c(Br)c2)cc1 | inconclusive [inhibitor, single point] |
| C/C(=N\O)c1cc(Cl)ccc1O | inactive |
| CCC(C)(C)c1ccc(OCCCC[n+]2cccc(C)c2C)c(C(C)(C)CC)c1 | inconclusive [activator, single point] |
| N#C/C(=N\Nc1cccc([N+](=O)[O-])c1)C(=O)c1ccc(Br)cc1 | active: 6.31 µM |
| O=C(O)c1ccc(NCc2ccncc2)cc1 | inactive |
| COc1cc(/C=C2/SC(=O)N(Cc3ccccc3)C2=O)ccc1OCc1ccncc1 | inconclusive [inhibitor, partial curve, poor fit] |
| COc1cccc(Nc2nc(-c3sc(NC(=O)c4ccco4)nc3C)cs2)c1 | inactive |
| C[N+](C)(C)CCCCCC[N+](C)(C)C | inconclusive [inhibitor, single point] |
| c1coc(C2Nc3ccccc3-c3nc4ccccc4n32)c1 (stereo not drawn) | inconclusive [activator, partial curve] |
| Cc1ccccc1-n1c(=O)cc(N2CCC3(CC2)OCCO3)[nH]c1=O | inactive |
| Cc1noc(C)c1COC(=O)c1ccc2c(c1)S(=O)(=O)c1ccccc1C2=O | inactive |
| CNc1cc(CSC)nc(SCc2ccc(Cl)c(Cl)c2)n1 | inconclusive [inhibitor, partial curve] |
| Cc1cc(O)c(-c2cc(O)c(C)cc2O)cc1O | inconclusive [activator, single point] |
| CC12CCC(c3c(CO)nn(-c4ccccc4)c31)C2(C)C (stereo not drawn) | inactive |

| Structure (SMILES) | Potency |
| --- | --- |
| CCOc1cccc(NC(=O)C2CCCN(S(=O)(=O)c3ccc(OC)cc3)C2)c1 (stereo not drawn) | inconclusive [inhibitor, partial curve, poor fit] |
| O=C(N/N=C/c1ccc[nH]1)c1cc(-c2cccs2)nc2ccccc12 | inactive |
| CCCCCCn1c(=O)[nH]c2nc3cc(N)ccc3nc2c1=O | inactive |
| Cn1ncc2c(NNC(=O)c3ccc(Cl)c(Cl)c3)ncnc21 | inactive |
| COc1ccc(C(Cl)=C(c2ccc(OC)cc2)c2ccc(OC)cc2)cc1 | active: 7.94 µM |
| Cc1nn(Cc2ccc(Cl)cc2Cl)c(Cl)c1/C=N/NC(=O)CNc1cccc(C(F)(F)F)c1 | inconclusive [inhibitor, single point] |
| Cc1oncc1C(=O)Nc1ccc(C(F)(F)F)cc1 | inconclusive [activator, partial curve, poor fit] |
| Cc1ccc(-c2nn(-c3ccccc3)cc2/C=N/n2c(-c3cccs3)n[nH]c2=S)cc1 | inconclusive [inhibitor, single point] |
| Fc1cccc2sc(Nc3nc4ccccc4s3)nc12 | inactive |
| c1ccc(N2CCN(CCc3nnc4n3CCCCC4)CC2)cc1 | inactive |
| CCCCc1nnc2c(N(C)S(=O)(=O)c3ccc(C)cc3)nc3ccccc3n12 | inconclusive [activator, partial curve] |
| COC(=O)c1cn(CCOc2ccccc2F)c2ccccc12 | inconclusive [inhibitor, single point] |
| CCc1cc2c(=O)c(-c3ccc4c(c3)OCCO4)coc2c(CN2CCCCC2C)c1O (stereo not drawn) | active: 10 µM |
| CN1CCN(c2nnc(-c3cccs3)c3ccccc23)CC1 | inactive |
| CCC(c1nnc(SCC(=O)Nc2ccc(Cl)cc2C(F)(F)F)n1C1CCCCC1)N(C)C (stereo not drawn) | inconclusive [inhibitor, partial curve] |
| O=Cc1cc(N=Nc2ccccc2Cl)ccc1O | inconclusive [activator, single point] |
| CCC(C)c1ccccc1NC(=O)C(C)N(C)Cc1cccc(OC)c1 (stereo not drawn) | inconclusive [inhibitor, single point] |
| Cc1cc(NC(=O)CN2C(=O)CC(c3ccco3)Sc3ccccc32)no1 (stereo not drawn) | inactive |
| COc1ccc(NC(=S)NC(NC(=O)c2cccc3ccccc23)C(Cl)(Cl)Cl)c([N+](=O)[O-])c1 (stereo not drawn) | inconclusive [inhibitor, partial curve] |
| COc1ccc(OC)c(CNn2c(-c3cccc(C)c3)nc3ccccc3c2=O)c1 | inconclusive [inhibitor, single point] |
| O=C(C1=C(O)C(=O)N(Cc2ccccc2)C1c1ccncc1)c1ccco1 (stereo not drawn) | inactive |
| Cc1ccccc1NC1=C/C(=N\S(=O)(=O)c2cccs2)c2ccccc2C1=O | active: 3.16 µM |
| CC(C)Cn1c(CN(Cc2ccccc2)Cc2ccccc2)nc2c1c(=O)n(C)c(=O)n2C | active: 12.6 µM |
